# Test results: PubChem BioAssay AID624417 (National Center for Advancing Translational Sciences (NCATS), 2012)
# Values joined by “and” are separate entries in the source; they are usually repeats but may differ in a detail not shown here. Equal entries are not always repeated. About 6,400 (1.6%) of roughly 410,000 compounds were called active. Inconclusive results, whose numbers are uncertain, are shown with a selection of clear calls. Calls follow the shape of the dose curve; as a rule, active = well fitted inhibition curve with a large enough effect; inconclusive = small, poorly fitted or top-dose-only effect; inactive = no such curve, though single readings can be large or run the other way. Where the call is inconclusive, the potency comes from a doubtful curve fit.
# Molecular target: Glucagon-like peptide 1 receptor (Homo sapiens) (UniProt P43220)
# Assay: qHTS of GLP-1 Receptor Inverse Agonists (Inhibition Mode); also: nearly all actives have a fitted effect of over 55% in size
# Conditions: HEK293 GLP-1R CRE-luciferase, luminescence, 24 h, GLP-1R form is constitutively active; activity change, negative = inhibition: at 38.3 µM (top of the series) unless noted
# How it was run: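 Inverse agonism was detected as reduced cAMP-driven luciferase luminescence after 24 h compound treatment. The cells were HEK293 clones expressing constitutively active human GLP-1R with the reporter. Reporter-only and GPR119 cell lines served as counterscreen controls.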
# % is scaled to controls: 0 for no effect and ±100 for the full control effect; potency is read from the fitted curve at half-maximal effect; tags tell the direction and shape of the fitted curve.
# Chain of UniProt P43220 (P43220 whole entry, looked up): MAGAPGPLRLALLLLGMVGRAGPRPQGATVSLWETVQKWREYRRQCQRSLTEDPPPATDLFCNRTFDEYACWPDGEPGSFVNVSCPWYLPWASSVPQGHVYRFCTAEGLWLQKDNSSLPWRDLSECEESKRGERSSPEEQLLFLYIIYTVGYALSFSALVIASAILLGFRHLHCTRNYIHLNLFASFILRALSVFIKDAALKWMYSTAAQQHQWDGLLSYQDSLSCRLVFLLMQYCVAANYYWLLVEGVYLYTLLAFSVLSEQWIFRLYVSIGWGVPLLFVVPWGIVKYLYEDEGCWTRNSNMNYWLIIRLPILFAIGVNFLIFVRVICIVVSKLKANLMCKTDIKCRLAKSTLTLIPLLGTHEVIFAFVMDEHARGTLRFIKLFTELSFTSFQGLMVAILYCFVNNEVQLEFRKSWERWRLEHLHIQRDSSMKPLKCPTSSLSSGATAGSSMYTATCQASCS
SMILES,Potency,"activity change, negative = inhibition"
O=C(Oc1cccc(/C=N/Nc2nc(N3CCOCC3)nc(N3CCOCC3)n2)c1)c1ccco1,"inconclusive: 7.08 µM [inhibitor, partial curve]",–
CN=c1scc(C)n1/N=C/c1ccc(O)cc1O,–,inactive: -13.3%
CCCSC1=C(C#N)C(c2cccs2)C(C(=O)Nc2ccccc2)=C(C)N1 (stereo not drawn),"inconclusive: 7.94 µM [inhibitor, partial curve, poor fit]",–
CC1=NN(/C(=N\c2nnc(C)s2)Nc2ccc(C)cc2)[C@H](c2ccc(C)cc2)S1,active: 10 µM,–
CCN(CC)S(=O)(=O)c1cccc(NC(=O)COC(=O)c2cc(C)oc2C)c1,"inconclusive: 6.31 µM [inhibitor, partial curve, poor fit]",–
CCN(c1ccccc1)S(=O)(=O)c1cccc(C(=O)N(C)CC(=O)Nc2ccc(F)c(F)c2F)c1,"inconclusive: 10 µM [inhibitor, partial curve, poor fit]",–
Cc1ccc(C)c2c3c([nH]c12)-c1nonc1CC3,"inconclusive: 28.2 µM [inhibitor, single point]",–
Cc1cc(C)c(S(=O)(=O)Nc2ccccc2)c(C)c1,"inconclusive: 22.4 µM [inhibitor, single point]",–
Cc1ccc2nc(-c3ccc(NC(=O)COC(=O)c4ccc(Br)o4)cc3)sc2c1,"inconclusive: 4.47 µM [inhibitor, partial curve]",–
Cc1cccc(N2CCN(C(=O)COCc3cc(-c4ccc5c(c4)OCO5)on3)CC2)c1C,"inconclusive: 14.1 µM [inhibitor, partial curve, poor fit] and inconclusive: 28.2 µM [inhibitor, single point]",–
CCc1sc(C(=O)NCCc2ccc(S(N)(=O)=O)cc2)cc1Br,"inconclusive: 22.4 µM [inhibitor, single point]",–
Cc1ccccc1-c1nc2c3c(-c4ccccc4)c(-c4ccccc4)oc3ncn2n1,–,inactive: 0.389%
CCn1c(CNc2ccc(F)cc2)nnc1SCCN1CCCCC1,"inconclusive: 11.2 µM [inhibitor, partial curve, poor fit]",–
CCCCn1c(NCc2ccccc2NS(=O)(=O)c2ccc(C)cc2)nc2ccccc21,"inconclusive: 3.16 µM [inhibitor, partial curve, poor fit]",–
CCc1ccc(OCCNC(=O)c2cccs2)cc1,"inconclusive: 11.2 µM [inhibitor, partial curve, poor fit]",–
CC1(C(=O)NCc2ccco2)Cc2c(-c3ccc(C(N)=O)cc3)ccnc2O1 (stereo not drawn),"inconclusive: 1.58 µM [inhibitor, full curve, poor fit]",–
COc1cccc(-c2ccnc3c(-c4ccccc4)c(C)nn23)c1,"inconclusive: 10 µM [inhibitor, partial curve, poor fit]",–
CCN(CC)c1ccc(/C=N/N2CCN(Cc3ccccc3)CC2)c(O)c1,"inconclusive: 4.47 µM [inhibitor, partial curve, poor fit]",–
O=C(CN1CCN(Cc2cccc(F)c2)CC1)NCc1ccccc1,"inconclusive: 8.91 µM [inhibitor, partial curve, poor fit]",–

SMILES,Potency,"activity change, negative = inhibition"
CCN(CC)c1ccc(NC(=O)c2ccccc2F)cc1,"inconclusive: 10 µM [inhibitor, single point]",–
O=C1CNC(=O)/C1=C\N1CCN(C(c2ccccc2)c2ccccc2)CC1,"inconclusive: 5.62 µM [inhibitor, full curve, poor fit]",–
C=CCNC(=O)c1ccccc1NC(=O)c1cccc2ccccc12,"inconclusive: 10 µM [inhibitor, partial curve, poor fit]",–
CC(O)(c1ccc(F)c(F)c1)c1nc(-c2cccc(C#N)c2)cs1 (stereo not drawn),"inconclusive: 15.8 µM [inhibitor, partial curve, poor fit]",–
C/C(=N\OCC(=O)N/N=C/c1ccccc1O)c1cccs1,"inconclusive: 7.94 µM [inhibitor, partial curve, poor fit]",–
CCOc1ccc(C(=O)NCC(c2ccco2)N2CCc3ccccc3C2)cc1 (stereo not drawn),"inconclusive: 12.6 µM [inhibitor, partial curve, poor fit]",–
C(=C/c1ccnc2nc(SC/C=C/c3ccccc3)nn12)/c1ccccc1,–,inactive: -3.16%
Cc1ccc(-c2nc(C#N)c(NCc3cccc4c3OCO4)o2)cc1,–,inactive: 180%
O=[N+]([O-])c1cccc(/C=N\N2CCN(Cc3ccccc3Cl)CC2)c1,"inconclusive: 11.2 µM [inhibitor, partial curve, poor fit]",–
O=C(Nc1ccc(Cl)c(Cl)c1)N1CC=C(c2ccccc2)CC1,"inconclusive: 14.1 µM [inhibitor, single point]",–
Cc1cc(C(=O)N2CCCC(C(=O)c3ccc(Cl)cc3C)C2)no1 (stereo not drawn),"inconclusive: 12.6 µM [inhibitor, partial curve]",–
S=C1SCN(Cc2cccnc2)CN1Cc1ccccc1,"inconclusive: 12.6 µM [inhibitor, partial curve, poor fit]",–
COc1cccc(C(O)c2nc(-c3ccc(N(C)C)cc3)cs2)c1 (stereo not drawn),"inconclusive: 28.2 µM [inhibitor, single point]",–
Cc1ccccc1CN1CCC(N2CCC(C(=O)NCC3CCCO3)CC2)CC1 (stereo not drawn),"inconclusive: 31.6 µM [inhibitor, partial curve, poor fit]",–
Cc1ccc(CNS(=O)(=O)c2cc(C(=O)Nc3ccc(C(C)C)cc3)ccc2F)cc1,"inconclusive: 11.2 µM [inhibitor, partial curve, poor fit]",–
S=C(NCCc1ccccc1)Nc1ccccc1N1CCOCC1,"inconclusive: 11.2 µM [inhibitor, single point]",–
O=C(O)C1CCN(c2ccc(S(=O)(=O)N3CCCCC3)cc2[N+](=O)[O-])CC1,–,inactive: 0.945%
CCOC(=O)Nc1cc2c(c(N)n1)N=C(c1ccccc1)CN2,"inconclusive: 1.12 µM [inhibitor, full curve, poor fit]",–
CCCCN(C)c1c(C)nc2ccc(C(=O)NCCc3c[nH]c4ccccc34)cn12,"inconclusive: 28.2 µM [inhibitor, single point]",–
